# Results from the supplement of paper PMC8047034.
# Structures can show the parent of a compound that is named as a salt. The list shows a part of the results. Repeats are few or missing, and single values can be far off.
# Test system: Ov4Carbo
# Assay: log2 surviving fraction (library drug vs vehicle, or drug + carboplatin vs carboplatin alone; relative to plate median); ovarian cancer lines: OVCAR4 is platinum-sensitive and Ov4Carbo platinum-resistant; higher = more cell survival
# Conditions: library drug concentration 10 µM; 7 days; carboplatin co-treatment 5 µM
row,SMILES,log2 surviving fraction
1,Cc1noc(NS(=O)(=O)c2ccc(N)cc2)c1C [Sulfisoxazole],-0.232
2,C=CCN1CC[C@]23c4c5ccc(O)c4O[C@H]2C(=O)CC[C@@]3(O)[C@H]1C5 [Naloxone HCl],1.53
3,C=C1c2c(Cl)ccc(O)c2C(=O)C2=C(O)[C@]3(O)C(=O)C(C(N)=O)=C(O)[C@@H](N(C)C)[C@@H]3[C@@H](O)[C@H]12.O=C(O)c1cc(S(=O)(=O)O)ccc1O [Meclocycline Sulfosalicylate],-1.27
4,Cc1nc2n(c(=O)c1CCN1CCC(c3noc4cc(F)ccc34)CC1)CCCC2O (configuration not stated) [Paliperidone (Invega)],0.972
5,Cc1nnc(NS(=O)(=O)c2ccc(N)cc2)s1 [Sulfamethizole (Proklar)],1.73
6,O=C(CCNNC(=O)c1ccncc1)NCc1ccccc1 [Nialamide],-0.135
7,N#CC[C@H](C1CCCC1)n1cc(-c2ncnc3[nH]ccc23)cn1,0.327
8,O=c1[nH]c2ccccc2n1CCCN1CCC(n2c(=O)[nH]c3cc(Cl)ccc32)CC1 [Domperidone (Motilium)],0.714
9,Cc1nnc(C(C)C)n1C1C[C@H]2CC[C@@H](C1)N2CC[C@H](NC(=O)C1CCC(F)(F)CC1)c1ccccc1 (stereo in doubt) [Maraviroc],1.64
10,NCC(=O)CCC(=O)O [5-Aminolevulinic acid hydrochloride],0.373
11,CCN(CC)CC(=O)Nc1c(C)cccc1C [Lidocaine (Alphacaine)],-0.32
12,CCCN[C@H]1CCc2nc(N)sc2C1 [Pramipexole (Mirapex)],0.61
